From PubChem BioAssay AID624296 (National Center for Advancing Translational Sciences (NCATS), 2012)
The whole screen tested about 350,000 compounds, of which about 9,900 (2.8%) were called active. This list was built around the results that the source calls inconclusive (neither active nor inactive); the mix of calls is not that of the screen. Calls follow the shape of the dose curve; as a rule, active = well fitted activation curve with a large enough effect; inconclusive = small, poorly fitted or top-dose-only effect; inactive = no such curve, though single readings can be large or run the other way. No potency is given beside an inconclusive call; the fits are too rough.

Assay: A quantitative high throughput screen for small molecules that induce DNA re-replication in MCF 10a normal breast cells. Also: nearly all actives have a fitted effect of over 50% in size. As to activity, positive = re-replication: % of control where 0% means no effect.
Settings: MCF 10A DNA re-replication, Hoechst nuclear intensity, 48 h; activity, positive = re-replication: at 46.1 µM (top of the series)
Potency is read from the fitted curve at half-maximal effect; tags tell the direction and shape of the fitted curve.

Compound	Potency	activity, positive = re-replication
COC(=O)c1c(C(=O)OC)n(CCCN)c2ccc(C)cc12	inconclusive [activator, partial curve, poor fit]	–
COc1ccc(CC2SC(=Nc3ccc(F)cc3)NC2=O)cc1 (stereo not drawn)	inactive	–
Cc1ccc(CNn2cnnc2SCc2ccc(F)cc2)cc1	inactive	–
O=C(Cc1cccs1)Nc1nc(-c2ccc(F)cc2F)cs1	inconclusive [activator, single point]	–
CCOc1ccc(N2C(=O)C3C(c4ccccc4)=NN(c4ccccc4)C3C2=O)cc1 (stereo not drawn)	inactive	–
CN(c1ccccc1)S(=O)(=O)c1ccc(C(=O)NCc2ccc(F)cc2)cc1	inactive	–
CN(Cc1ccccc1)C(=O)c1[nH]cnc1C(=O)N[C@@H](CCCCNC(=O)OC(C)(C)C)C(=O)OC(C)(C)C	inactive	–
CCOC(=O)c1cc(NC(=O)C2CCCO2)cc(C(=O)OCC)c1 (stereo not drawn)	inactive	–
O=C(Cn1cnc2c(cnn2-c2ccccc2)c1=O)NCc1ccccc1	inconclusive [activator, partial curve, poor fit]	–
COc1ccc(-n2nnnc2-c2cccc(OC)c2)cc1	active: 4.11 µM	–
Cc1ccc(/C=N/NC(=O)c2n[nH]c3c2CCCC3)cc1	inconclusive [activator, full curve, poor fit]	–
O=C(c1ccccc1)C1CN(Cc2ccccc2)CCC1(O)c1ccccc1 (stereo not drawn)	inconclusive [activator, single point]	–
CCOc1ccc2nc(NC(=O)CSc3nc4cccnc4n3C)sc2c1	inconclusive [activator, single point]	–
O=C(N/N=C/C=C\c1ccccc1[N+](=O)[O-])c1cc(-c2ccccc2)nc2ccccc12	inactive	–
Cc1ccc(-c2csc(N(CCc3ccccc3)C(=O)COc3ccccc3)n2)cc1	inconclusive [activator, partial curve]	–
CCCN(C(=O)C(=O)Nc1ccc2nc3n(c(=O)c2c1)CCCCC3)c1ccc(OCC)cc1	inconclusive [activator, partial curve, poor fit]	–
CCN(CC)C1Oc2cc3c(cc2C(c2cc(OC)c(OC)c(OC)c2)C1C)OCO3 (stereo not drawn)	active: 1.46 µM	–
COc1ccc(S(=O)(=O)N(Cc2ccccc2)c2ccccc2C(=O)Nc2ccccc2C(=O)NCc2ccco2)cc1	inactive	–
CCOC(=O)/C(=N\Nc1ncnc2ccccc12)c1ccc(C)cc1	inactive	–
Cn1c(SCC(=O)N2CC(=O)Nc3ccccc32)nc2ccccc2c1=O	inactive	–
O=C(C1=C[C@H](c2coc3ccccc3c2=O)C[C@H](OCCCCO)O1)N1CCN(Cc2ccc3c(c2)OCO3)CC1	inconclusive [activator, partial curve, poor fit]	–
COC(=O)c1c(NC(=O)Cc2cccs2)sc2c1CCCC2	inconclusive [activator, single point]	–
Cc1ccc(CNC(=O)C2CCCN(S(=O)(=O)c3c(C)[nH]c(=O)[nH]c3=O)C2)cc1 (stereo not drawn)	–	inconclusive: 88.6% [activator]

Compound	Potency	activity, positive = re-replication
COc1ccc(/C=C/C(=O)NCc2cccnc2)cc1	inactive	–
CCOC(=O)C1(CC2CCCCO2)CCN(Cc2nc3ccccc3nc2C)CC1 (stereo not drawn)	inconclusive [activator, single point]	–
Clc1ccc(C[n+]2cc(-c3ccccc3)n3c2CCCCC3)c(Cl)c1	inactive	–
Cc1ccc(CN(Cc2ccccn2)C(=O)Nc2ccc(C)c(C)c2)cc1	inactive	–
NNC(=O)c1sc(-c2ccc(Cl)cc2)cc1N	inconclusive [activator, single point]	–
CC(=O)Nc1ccc(S[C@@H](CCN2CC[C@H](C(C)(C)C)CCC2=O)c2ccccc2)cc1	inconclusive [activator, single point]	–
CCCc1ccc(C(=O)/C=C/N(C)C)cc1	inconclusive [activator, single point]	–
COc1cc(/C=N/Nc2nc(C)nc3c2cnn3-c2ccccc2)ccc1O	inconclusive [activator, partial curve, poor fit]	–
COc1ccc2[nH]c(C)c(C(=O)CN(C)C)c2c1	inconclusive [activator, single point]	–
COc1ccc(CN(C)C[C@H]2Oc3c(NC(=O)Nc4ccccc4)cccc3C(=O)N([C@H](C)CO)C[C@@H]2C)cc1	inconclusive [activator, partial curve, poor fit]	–
COc1cccc(-n2ccnc2SCC(=O)Nc2cc(OC)ccc2OC)c1	inconclusive [activator, partial curve, poor fit]	–
Cc1cc(C)c(-c2csc(NC(=O)C3=COCCO3)n2)c(C)c1	inconclusive [activator, single point]	–
COC(=O)c1ccccc1NC(=O)Nc1ccc(C(=O)N2CCCC2)cc1	inactive	–
C=CCNC(=O)C(C#N)c1nc2ccccc2nc1N1CCCCCC1 (stereo not drawn)	inconclusive [activator, single point]	–
OC(CNCc1ccc(Cl)c(Cl)c1)c1ccccc1 (stereo not drawn)	inconclusive [activator, partial curve, poor fit]	–
Cc1ccc(N(CC(=O)NCc2ccc3c(c2)OCO3)S(=O)(=O)c2c(C)noc2C)cc1	inconclusive [activator, single point]	–
Nc1c([N+](=O)[O-])c(=O)sc2ccccc12	inconclusive [activator, partial curve, poor fit]	–
COc1ccc(NC(=O)c2ccccc2O)c(OC)c1	inactive	–
N#CCSc1nc2c(c(=O)n1Cc1ccccc1)C1(CCCC1)Cc1ccccc1-2	inconclusive [activator, partial curve, poor fit]	–
O=C(Nc1ccnn1C1CCN(C/C=C/c2ccccc2)CC1)C1CCCC1	inconclusive [activator, full curve, poor fit]	–
CC1CCN(S(=O)(=O)c2cccc(C(=O)NC3CCCC3)c2)CC1	inconclusive [activator, partial curve, poor fit]	–
CC(C)OC(=O)c1cc(NC(=S)Nc2ccc([N+](=O)[O-])cc2)cc(C(=O)OC(C)C)c1	inconclusive [activator, single point]	–
CCN1CCN(S(=O)(=O)c2ccc(C(C)(C)C)cc2)CC1	inconclusive [activator, partial curve, poor fit]	–

Compound	Potency	activity, positive = re-replication
O=C(Oc1ccc(-c2nnco2)cc1)c1ccc(Br)o1	inactive	–
Cc1cc(SCC(=O)c2cccs2)n2nc(C)c(-c3ccc(Cl)cc3)c2n1	inconclusive [activator, full curve, poor fit]	–
CC(C)c1ccc(CNc2ncc(Br)cn2)cc1	inactive	–
CCOC(=O)c1nc2cc3n(c(CC(C)C)c-2c1C)CC(C)=C3C	inconclusive [activator, single point]	–
CCC(C)(C)C(=O)Nc1ncc(S(=O)(=O)c2ccc([N+](=O)[O-])cc2)s1	inconclusive [activator, full curve]	–
COc1ccc(N(Cc2cc3cc(OC)ccc3[nH]c2=O)S(=O)(=O)c2ccc(NC(C)=O)cc2)cc1	inconclusive [activator, single point]	–
CCc1ccc(CN(C)C(=O)c2cc(COc3cc(C)c(Cl)c(C)c3)on2)nc1	active: 23.1 µM	–
CCN(C(=O)c1cnc(N2CCN(c3ncccn3)CC2)c2ccccc12)c1cccc(Cl)c1	inconclusive [activator, single point]	–
Cc1ccc(C)c(N2N=C(C(=O)Nc3ccccc3N3CCOCC3)CCC2=O)c1	inconclusive [activator, single point]	–
CCOC(=O)C1CCN(C2=C(NS(=O)(=O)c3ccc(Br)cc3)C(=O)c3ccccc3C2=O)CC1	inconclusive [activator, partial curve, poor fit]	–
Cc1cc(-c2ccc([N+](=O)[O-])cc2)cc(C)n1	inactive	–
O=[N+]([O-])c1ccc2c(c1N1CCCCC1)=NC1(CCCCC1)[N+]=2[O-]	inconclusive [activator, full curve, poor fit]	–
O=C(NCCCSc1ccccc1)c1cc(Br)ccc1O	inconclusive [activator, partial curve]	–
CCCn1nnnc1-c1ccc(Cl)cc1	inactive	–
CCOC(=O)C1=C(N)Oc2ccc3ccccc3c2C1c1cccc(O)c1 (stereo not drawn)	inconclusive [activator, partial curve]	–
COc1ccc(CNC(=O)COc2ccc(C(=O)c3ccc(F)cc3)cc2)cc1	active: 1.16 µM	–
CCOC(=O)c1sc(NC(=O)CSC(=S)N2CCOCC2)nc1C	inactive	–
Cc1ccccc1OCc1nc2ccccc2c(=O)n1/N=C/c1c[nH]c2ccccc12	active: 16.4 µM	–
COc1cccc(/C=N/NC(=O)CC(=O)NCCc2ccccc2)c1OC	inactive	–
O=C(Nc1ccc(OCC(F)(F)C(F)F)c(C(F)(F)F)c1)c1ccccc1	inconclusive [activator, single point]	–
O=C(N/N=C/c1cc2c(cc1Br)OCO2)c1c[nH]c2ccccc12	inconclusive [activator, single point]	–
O=C(N/N=C/c1ccc(O)c(O)c1)c1ccc(CSc2cccc3cccnc23)cc1	inconclusive [activator, partial curve, poor fit]	–
